Experimental data published in a collection of fitness landscapes (doi:10.1126/science.1257360).
Some of the results follow.

B1: PhoQ; a variant is named by its letters at X, in order, P23837 (parent)
chain: MKKLLRLFFPLSLRVRFLLATAAVVLVLSLAYGMVALIGYSVSFDKTTFRLLRGESNLFYTLAKWENNKLHVELPENIDKQSPTMTLIYDENGQLLWAQRDVPWLMKMIQPDWLKSNGFHEIEADVNDTSLLLSGDHSIQQQLQEVREDDDDAEMTHSVAVNVYPATSRMPKLTIVVVDTIPVELKSSYMVWSWFIYVLSANLLLVIPLLWVAAWWSLRPIEALAKEVRELEEHNRELLNPATTRELTSLVRNLNRLLKSERERYDKYRTTLTDLTHSLKTPLXXLQXXLRSLRSEKMSVSDAEPVMLEQISRISQQIGYYLHRASMRGGTLLSRELHPVAPLLDNLTSALNKVYQRKGVNISLDISPEISFVGEQNDFVEVMGNVLDNACKYCLEFVEISARQTDEHLYIVVEDDGPGIPLSKREVIFDRGQRVDTLRPGQGVGLAVAREITEQYEGKIVAGESMLGGARMEVIFGRQHSAPKDE

Variants of: B1
Test: enrichment ratio after two sorts for PhoP signalling (ratio (wild type AVST 3.29)); higher = more functional
Details: with PhoP (E. coli)

Variant	enrichment ratio
WDLT	≤ 0.25
IYVW	≤ 0.25
EFET	≤ 0.25
LHMD	≤ 0.25
KKFV	≤ 0.25
IQLH	≤ 0.25
TYIM	≤ 0.25
AYCV	≤ 0.25
KQTT	≤ 0.25
EMLQ	≤ 0.25
GNPY	≤ 0.25
GDLT	≤ 0.25
QMGG	≤ 0.25
FHFH	≤ 0.25
TWVM	≤ 0.25
MKPI	≤ 0.25
PDTQ	≤ 0.25
PLWP	≤ 0.25
SFYM	≤ 0.25
MVMA	≤ 0.25
MCII	≤ 0.25
PGHE	≤ 0.25
DECP	≤ 0.25
WWPY	≤ 0.25

Variant	enrichment ratio
SAKI	≤ 0.25
HPHT	≤ 0.25
MPWR	≤ 0.25
PSKT	≤ 0.25
FAQS	≤ 0.25
VQFM	≤ 0.25
PEDL	≤ 0.25
GVIT	≤ 0.25
KLSL	≤ 0.25
GQCD	≤ 0.25
PTDQ	≤ 0.25
PYMQ	≤ 0.25
GHPS	≤ 0.25
DEFY	≤ 0.25
DYCT	≤ 0.25
EHKV	≤ 0.25
NRNE	≤ 0.25
SIDW	≤ 0.25
PSIN	≤ 0.25
YQCI	≤ 0.25
GHVY	≤ 0.25
DHPF	≤ 0.25
GDTF	≤ 0.25
QSSK	≤ 0.25

Variant	enrichment ratio
DPIA	≤ 0.25
YMCK	≤ 0.25
IASL	≤ 0.25
HELM	5.66
ADLS	2.75
SRRQ	≤ 0.25
YRQD	≤ 0.25
DYNA	≤ 0.25
DKFL	≤ 0.25
NISW	≤ 0.25
QTRQ	≤ 0.25
QKTT	≤ 0.25
LYHF	≤ 0.25
DIGI	≤ 0.25
DDSC	≤ 0.25
PCAI	≤ 0.25
YDHT	≤ 0.25
EVGS	≤ 0.25
IACL	≤ 0.25
PDYL	≤ 0.25
EEQF	≤ 0.25
FWYV	≤ 0.25
DNKI	≤ 0.25
VPQK	≤ 0.25

Variant	enrichment ratio
QDAK	≤ 0.25
HCRA	≤ 0.25
GVIG	2.7
FRSK	≤ 0.25
TPTQ	≤ 0.25
MKYI	≤ 0.25
HFWS	≤ 0.25
ITIH	≤ 0.25
IVVI	≤ 0.25
QGCV	3.61
VCCA	≤ 0.25
MLPM	≤ 0.25
RGMH	≤ 0.25
EKYC	≤ 0.25
DLEG	≤ 0.25
IALA	≤ 0.25
VNND	≤ 0.25
EYWI	≤ 0.25
IGYM	≤ 0.25
DLWV	≤ 0.25
SEPA	≤ 0.25
WNSY	≤ 0.25
ERCQ	≤ 0.25
KRCI	≤ 0.25

Variant	enrichment ratio
IAYT	≤ 0.25
MVGM	7.35
ESMA	≤ 0.25
GFQL	≤ 0.25
IALD	≤ 0.25
RMMF	≤ 0.25
VFLN	≤ 0.25
NYRS	≤ 0.25
IEQM	≤ 0.25
QYIF	≤ 0.25
VPVR	≤ 0.25
RKLH	≤ 0.25
VKDH	≤ 0.25
DMYD	1.02
EIMH	≤ 0.25
NHCG	≤ 0.25
SIPN	≤ 0.25
NIME	≤ 0.25
FSCH	0.442
TQGT	0.286
EFDV	≤ 0.25
IYQT	≤ 0.25
WQQI	≤ 0.25
AMQF	≤ 0.25

Variant	enrichment ratio
HVTG	≤ 0.25
IWHG	≤ 0.25
VSHG	≤ 0.25
LINE	≤ 0.25
NPGY	≤ 0.25
ILPK	≤ 0.25
VRDS	≤ 0.25
LWDS	≤ 0.25
SMCT	11
MFRW	≤ 0.25
AINR	≤ 0.25
NDAI	3.29
NCDK	≤ 0.25
PVED	≤ 0.25
QQHT	≤ 0.25
TPIA	≤ 0.25
SPQF	≤ 0.25
ILCR	≤ 0.25
KGAP	≤ 0.25
DIMD	≤ 0.25
AVAE	≤ 0.25
NVSG	≤ 0.25
WIIS	≤ 0.25
MWPL	≤ 0.25

Variant	enrichment ratio
APHN	≤ 0.25
YPIQ	≤ 0.25
VHLC	≤ 0.25
KRFY	≤ 0.25
DHYD	≤ 0.25
MLDA	≤ 0.25
IWWG	≤ 0.25
DFHN	≤ 0.25
EMKP	≤ 0.25
QADY	11.7
QNYE	≤ 0.25
MKRE	≤ 0.25
YSKM	≤ 0.25
VALE	2.02
APNV	≤ 0.25
HWCC	≤ 0.25
KFCP	≤ 0.25
AGNR	≤ 0.25
FWAD	≤ 0.25
KHSN	≤ 0.25
GHNR	≤ 0.25
LQYP	≤ 0.25
NLRH	≤ 0.25
MDGF	≤ 0.25

Variant	enrichment ratio
SKHK	≤ 0.25
HCDL	≤ 0.25
LSER	≤ 0.25
INPK	≤ 0.25
YFGQ	≤ 0.25
EAAY	≤ 0.25
QNFH	≤ 0.25
KFCV	≤ 0.25
QQED	≤ 0.25
VHAI	≤ 0.25
PKAV	≤ 0.25
GLWS	≤ 0.25
VKSN	≤ 0.25
MQCQ	≤ 0.25
QFDG	≤ 0.25
WSRE	≤ 0.25
ELGM	≤ 0.25
MMDL	≤ 0.25
FGTT	≤ 0.25
WIWG	≤ 0.25
VQML	≤ 0.25
WDFP	≤ 0.25
EYEI	≤ 0.25
GRPA	≤ 0.25

Variant	enrichment ratio
SVNP	≤ 0.25
YLYE	≤ 0.25
FEVF	≤ 0.25
LEYC	4.32
HMWW	≤ 0.25
CNAF	≤ 0.25
WANI	≤ 0.25
GALI	14.1
GKWG	≤ 0.25
IMEH	≤ 0.25
WRSF	≤ 0.25
TLAF	1.14
ECFK	≤ 0.25
QFSS	≤ 0.25
SWHA	≤ 0.25
IKYI	≤ 0.25
DWLE	≤ 0.25
MDYK	≤ 0.25
QQNY	2.46
TGSK	≤ 0.25
CVLV	≤ 0.25
DTRY	≤ 0.25
RRKE	≤ 0.25
ECST	≤ 0.25

Variant	enrichment ratio
IACN	≤ 0.25
WNPY	≤ 0.25
LQSH	≤ 0.25
YHIH	≤ 0.25
IDWG	≤ 0.25
VMHG	≤ 0.25
LVNK	≤ 0.25
MSIP	≤ 0.25
LWQP	≤ 0.25
RMCM	≤ 0.25
RMEE	≤ 0.25
GLLV	3.8
YHVP	≤ 0.25
DHGI	≤ 0.25
RWFV	≤ 0.25
DFTA	≤ 0.25
LNAP	≤ 0.25
QNCG	≤ 0.25
HEYY	≤ 0.25
EVNQ	≤ 0.25
MVNM	≤ 0.25
WFFR	≤ 0.25
HLCG	≤ 0.25
QLGT	≤ 0.25

Variant	enrichment ratio
HRSN	≤ 0.25
VSED	≤ 0.25
NCLV	1.12
WVLK	≤ 0.25
MYLG	≤ 0.25
SPVW	≤ 0.25
PNEC	≤ 0.25
PPQA	≤ 0.25
DYPL	0.405
VGML	8.33
SILE	1.97
GPSV	≤ 0.25
VSHD	≤ 0.25
PEGI	≤ 0.25
QISI	≤ 0.25
DQRP	≤ 0.25
LRIA	≤ 0.25
IRIY	≤ 0.25
KREA	≤ 0.25
GCTK	≤ 0.25
MMWG	≤ 0.25
FCYT	≤ 0.25
RAIY	≤ 0.25
SNED	≤ 0.25

Variant	enrichment ratio
QLTP	≤ 0.25
EVKV	≤ 0.25
HKHE	≤ 0.25
RFYF	≤ 0.25
DYTP	≤ 0.25
YMSN	≤ 0.25
IDIE	≤ 0.25
IGDF	≤ 0.25
CFYF	≤ 0.25
EELK	≤ 0.25
GCIM	24.5
GHRE	≤ 0.25
WNCQ	≤ 0.25
WIYW	≤ 0.25
HALE	≤ 0.25
HEFY	≤ 0.25
APCK	≤ 0.25
WSQA	≤ 0.25
RSGD	≤ 0.25
MQLV	4.79
SWDY	≤ 0.25
QRTT	≤ 0.25
PCYC	≤ 0.25
GQTY	≤ 0.25

Variant	enrichment ratio
WYRG	≤ 0.25
QRKH	≤ 0.25
AGTV	4.18
WKLY	≤ 0.25
QTLY	≤ 0.25
RHQH	≤ 0.25
RSWC	≤ 0.25
THWY	≤ 0.25
IQQR	≤ 0.25
VPTE	≤ 0.25
FLIW	≤ 0.25
QGHN	≤ 0.25
WSGI	≤ 0.25
QNAW	≤ 0.25
NNLQ	≤ 0.25
QVHH	≤ 0.25
NNVC	≤ 0.25
MFGS	≤ 0.25
